Results taken from the supplement of paper PMC8728848.
Some of the results follow.

Assays:
Assay in all cases: glycan array binding signal (z-score within array); higher = stronger binding
Conditions in all cases: glycan notation: IUPAC condensed, linker removed
Fuc(a1-4)GlcNAc = target: Fuc(a1-4)GlcNAc
Procedure, shortened: (§1)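 The binding signal is a Z-score computed within each array and averaged over linkers. Arrays of the same protein sequence at different concentrations or buffers were also averaged together. Data originate from 3228 arrays in the Consortium for Functional Glycomics database, kept only where the protein sequence was available.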

Fuc(b1-3)GlcNAc = target: Fuc(b1-3)GlcNAc
Procedure, shortened: as §1

Gal(a1-2)Gal = target: Gal(a1-2)Gal
Procedure, shortened: as §1

Gal(a1-3)Gal = target: Gal(a1-3)Gal
Procedure, shortened: as §1

Gal(a1-3)Gal(b1-3)GlcNAc = target: Gal(a1-3)Gal(b1-3)GlcNAc
Procedure, shortened: as §1

[1] = target: Gal(a1-3)Gal(b1-3)GlcNAc(b1-2)Man
Procedure, shortened: as §1

[2] = target: Gal(a1-3)Gal(b1-3)GlcNAc(b1-2)Man(a1-3)[Gal(a1-3)Gal(b1-3)GlcNAc(b1-2)Man(a1-6)]Man(b1-4)GlcNAc(b1-4)GlcNAc
Procedure, shortened: as §1

[3] = target: Gal(a1-3)Gal(b1-3)GlcNAc(b1-3)GalNAc
Procedure, shortened: as §1

[4] = target: Gal(a1-3)Gal(b1-3)GlcNAc(b1-6)GalNAc
Procedure, shortened: as §1

[5] = target: Gal(a1-3)Gal(b1-3)[Fuc(a1-4)]GlcNAc(b1-2)Man(a1-3)[Gal(a1-3)Gal(b1-3)[Fuc(a1-4)]GlcNAc(b1-2)Man(a1-6)]Man(b1-4)GlcNAc(b1-4)GlcNAc
Procedure, shortened: as §1

Gal(a1-3)Gal(b1-4)Glc = target: Gal(a1-3)Gal(b1-4)Glc
Procedure, shortened: as §1

Gal(a1-3)Gal(b1-4)GlcNAc = target: Gal(a1-3)Gal(b1-4)GlcNAc
Procedure, shortened: as §1

[6] = target: Gal(a1-3)Gal(b1-4)GlcNAc(b1-2)Man
Procedure, shortened: as §1

[7] = target: Gal(a1-3)Gal(b1-4)GlcNAc(b1-2)Man(a1-3)[Gal(a1-3)Gal(b1-4)GlcNAc(b1-2)Man(a1-6)]Man(b1-4)GlcNAc(b1-4)GlcNAc
Procedure, shortened: as §1

[8] = target: Gal(a1-3)Gal(b1-4)GlcNAc(b1-3)GalNAc
Procedure, shortened: as §1

[9] = target: Gal(a1-3)Gal(b1-4)GlcNAc(b1-6)GalNAc
Procedure, shortened: as §1

[10] = target: Gal(a1-3)Gal(b1-4)[Fuc(a1-3)]GlcNAc
Procedure, shortened: as §1

[11] = target: Gal(a1-3)Gal(b1-4)[Fuc(a1-3)]GlcNAc(b1-2)Man(a1-3)[Gal(a1-3)Gal(b1-4)[Fuc(a1-3)]GlcNAc(b1-2)Man(a1-6)]Man(b1-4)GlcNAc(b1-4)GlcNAc
Procedure, shortened: as §1

Gal(a1-3)GalNAc = target: Gal(a1-3)GalNAc
Procedure, shortened: as §1

[12] = target: Gal(a1-3)[Gal(a1-4)]Gal(b1-4)GlcNAc
Procedure, shortened: as §1

[13] = target: Gal(a1-4)Gal(b1-3)GlcNAc(b1-2)Man(a1-3)[Gal(a1-4)Gal(b1-3)GlcNAc(b1-2)Man(a1-6)]Man(b1-4)GlcNAc(b1-4)GlcNAc
Procedure, shortened: as §1

Gal(a1-4)Gal(b1-4)Glc = target: Gal(a1-4)Gal(b1-4)Glc
Procedure, shortened: as §1

Gal(a1-4)Gal(b1-4)GlcNAc = target: Gal(a1-4)Gal(b1-4)GlcNAc
Procedure, shortened: as §1

[14] = target: Gal(a1-4)Gal(b1-4)GlcNAc(b1-2)Man(a1-3)[Gal(a1-4)Gal(b1-4)GlcNAc(b1-2)Man(a1-6)]Man(b1-4)GlcNAc(b1-4)GlcNAc
Procedure, shortened: as §1

[15] = target: Gal(a1-4)Gal(b1-4)GlcNAc(b1-3)Gal(b1-4)Glc
Procedure, shortened: as §1

Gal(a1-4)GlcNAc = target: Gal(a1-4)GlcNAc
Procedure, shortened: as §1

Gal(a1-6)Glc = target: Gal(a1-6)Glc
Procedure, shortened: as §1

Gal(b1-2)Gal = target: Gal(b1-2)Gal
Procedure, shortened: as §1

Gal(b1-3)Gal = target: Gal(b1-3)Gal
Procedure, shortened: as §1

Gal(b1-3)Gal(b1-4)GlcNAc = target: Gal(b1-3)Gal(b1-4)GlcNAc
Procedure, shortened: as §1

Gal(b1-3)GalNAc = target: Gal(b1-3)GalNAc
Procedure, shortened: as §1

[16] = target: Gal(b1-3)GalNAc(a1-3)[Fuc(a1-2)]Gal(b1-4)Glc
Procedure, shortened: as §1

[17] = target: Gal(b1-3)GalNAc(a1-3)[Fuc(a1-2)]Gal(b1-4)GlcNAc
Procedure, shortened: as §1

Gal(b1-3)GalNAc(b1-3)Gal = target: Gal(b1-3)GalNAc(b1-3)Gal
Procedure, shortened: as §1

[18] = target: Gal(b1-3)GalNAc(b1-3)Gal(a1-4)Gal(b1-4)Glc
Procedure, shortened: as §1

[19] = target: Gal(b1-3)GalNAc(b1-4)Gal(b1-4)Glc
Procedure, shortened: as §1

[20] = target: Gal(b1-3)GalNAc(b1-4)[Neu5Ac(a2-3)]Gal(b1-4)Glc
Procedure, shortened: as §1

Gal(b1-3)GlcNAc = target: Gal(b1-3)GlcNAc
Procedure, shortened: as §1

B1: Gal 8 (Homo sapiens) (protein)
chain: MLSLNNLQNIIYNPVIPYVGTIPDQLDPGTLIVICGHVPSDADRFQVDLQNGSSVKPRADVAFHFNPRFKRAGCIVCNTLINEKWGREEITYDTPFKREKSFEIVIMVLKDKFQVAVNGKHTLLYGHRIGPEKIDTLGIYGKVNIHSIGFSFSSDLQSTQASSLELTEISRENVPKSGTPQLQTVSPSWDLQGHGSETFCSVLWTRVFLEIAFCRPIGLTVASFQSLPFAARLNTPMGPGRTVVVKGEVNANAKSFNVDLLAGKSKDIALHLNPRLNIKAFVRNSFLQESWGEEERNITSFPFSPGMYFEMIIYCDVREFKVAVNGVHSLEYKHRFKELSSIDTLEINGDIHLLEVRSW
Fuc(a1-4)GlcNAc
  glycan array binding signal (z-score): -0.061
Fuc(b1-3)GlcNAc
  glycan array binding signal (z-score): -0.402
Gal(a1-2)Gal
  glycan array binding signal (z-score): -0.328
Gal(a1-3)Gal
  glycan array binding signal (z-score): -0.358
Gal(a1-3)Gal(b1-3)GlcNAc
  glycan array binding signal (z-score): -0.25
[1]
  glycan array binding signal (z-score): -0.165
[2]
  glycan array binding signal (z-score): -0.354
[3]
  glycan array binding signal (z-score): -0.354
[4]
  glycan array binding signal (z-score): -0.295
[5]
  glycan array binding signal (z-score): -0.352
Gal(a1-3)Gal(b1-4)Glc
  glycan array binding signal (z-score): -0.093
Gal(a1-3)Gal(b1-4)GlcNAc
  glycan array binding signal (z-score): -0.309
[6]
  glycan array binding signal (z-score): -0.252
[7]
  glycan array binding signal (z-score): 0.506
[8]
  glycan array binding signal (z-score): -0.316
[9]
  glycan array binding signal (z-score): -0.349
[10]
  glycan array binding signal (z-score): -0.4
[11]
  glycan array binding signal (z-score): -0.356
Gal(a1-3)GalNAc
  glycan array binding signal (z-score): -0.387
[12]
  glycan array binding signal (z-score): -0.39
[13]
  glycan array binding signal (z-score): -0.352
Gal(a1-4)Gal(b1-4)Glc
  glycan array binding signal (z-score): -0.254
Gal(a1-4)Gal(b1-4)GlcNAc
  glycan array binding signal (z-score): -0.284
[14]
  glycan array binding signal (z-score): -0.357
[15]
  glycan array binding signal (z-score): 0.691
Gal(a1-4)GlcNAc
  glycan array binding signal (z-score): -0.364
Gal(a1-6)Glc
  glycan array binding signal (z-score): -0.035
Gal(b1-2)Gal
  glycan array binding signal (z-score): -0.353
Gal(b1-3)Gal
  glycan array binding signal (z-score): -0.076
Gal(b1-3)Gal(b1-4)GlcNAc
  glycan array binding signal (z-score): -0.178
Gal(b1-3)GalNAc
  glycan array binding signal (z-score): -0.254
[16]
  glycan array binding signal (z-score): 0.682
[17]
  glycan array binding signal (z-score): 1.59
Gal(b1-3)GalNAc(b1-3)Gal
  glycan array binding signal (z-score): -0.297
[18]
  glycan array binding signal (z-score): 0.019
[19]
  glycan array binding signal (z-score): -0.151
[20]
  glycan array binding signal (z-score): 0.192
Gal(b1-3)GlcNAc
  glycan array binding signal (z-score): -0.24
